This is one part of the list. The full chains were built here from the parent and the listed change. Values near 0.05 are background.
B1: TEV protease; numbered along this chain (parent)
chain: MGESLFKGPRDYNPISSSICHLTNESDGHTTSLYGIGFGPFIITNKHLFRRNNGTLVVQSLHGVFKVKDTTTLQQHLVDGRDMIIIRMPKDFPPFPQKLKFREPQREERICLVTTNFQTKSMSSMVSDTSCTFPSGDGIFWKHWIQTKDGQCGSPLVSTRDGFIVGIHSASNFTNTNNYFTSVPKNFMELLTNQEAQQWVSGWRLNADSVLWGGHKVFMVKPEEPFQPVKEATQL

Variants of: B1
Experiment: raw area under fraction-flipped curve 0-4 h after induction (AUC4h, not background-subtracted), DNA-recorder readout of cleavage of the substrate (dimensionless); higher = more cleavage of the substrate by the protease variant
Settings: temperature: 34 °C; time window: 0-4 h after rhamnose induction
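Further: Bxb1 expression induced with 0.2% (w/v) L-rhamnose at OD600 near 0.5, cultures sampled hourly, flipped fraction per protease–substrate barcode pair counted by paired-end Illumina sequencing.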

Variant | area with substrate ECLYFQS | area with substrate EDLYFQS | area with substrate EELYFQS | area with substrate EQLYFQS | area with substrate ESLYFQS | area with substrate EVLYFQS | area with substrate EWLYFQS | area with substrate EGLYFQS | area with substrate EHLYFQS | area with substrate EKLYFQS | area with substrate ELLYFQS | area with substrate ERLYFQS | area with substrate ETLYFQS | area with substrate EYLYFQS | area with substrate EILYFQS | area with substrate EMLYFQS | area with substrate EPLYFQS | area with substrate EFLYFQS
Q198H | 0.0706 | 0.0967 | 0.11 | 0.11 | 0.114 | 0.0914 | 0.0551 | – | – | – | – | – | – | – | – | – | – | –
G202T | 0.086 | 0.077 | 0.0541 | 0.0746 | 0.061 | – | – | 0.0914 | 0.0672 | 0.072 | 0.0637 | 0.0638 | 0.054 | 0.0672 | – | – | – | –
W203I | 0.0659 | – | 0.0388 | 0.0478 | 0.0541 | 0.073 | – | 0.0715 | – | 0.0687 | – | 0.0701 | 0.0679 | – | 0.0533 | 0.0658 | 0.0514 | –
R204S | 0.106 | 0.12 | 0.066 | 0.12 | 0.111 | 0.0914 | 0.0898 | 0.116 | 0.136 | 0.116 | 0.0825 | 0.0965 | 0.132 | – | 0.0974 | 0.0726 | 0.122 | 0.127
L205T | 0.0699 | – | 0.0692 | – | – | – | – | – | – | 0.0697 | – | – | – | – | – | – | – | –
A207H | 0.0915 | 0.152 | 0.134 | 0.0064 | 0.102 | 0.0932 | – | – | 0.181 | – | – | – | – | – | 0.092 | – | – | 0.11
A207Q | 0.11 | – | 0.132 | – | 0.105 | – | – | – | 0.102 | – | 0.0881 | 0.104 | 0.124 | 0.0857 | 0.102 | – | – | 0.103
A207W | 0.114 | – | 0.0064 | 0.105 | 0.082 | 0.0865 | 0.085 | 0.0891 | – | – | 0.0821 | – | – | – | 0.0778 | 0.101 | – | 0.006
L211Y | 0.132 | 0.129 | – | – | 0.106 | – | – | 0.0983 | 0.108 | 0.136 | – | 0.106 | 0.111 | – | 0.107 | – | 0.113 | –
W212L | 0.122 | 0.137 | 0.183 | 0.135 | 0.122 | 0.118 | 0.0972 | 0.101 | 0.101 | 0.162 | 0.0968 | 0.119 | – | – | 0.108 | 0.132 | 0.119 | –
W212P | 0.0731 | – | 0.0642 | 0.044 | 0.0594 | 0.0707 | – | 0.0633 | – | – | – | – | – | – | 0.0544 | 0.0487 | 0.0525 | –
G214P | 0.0651 | – | 0.0828 | – | 0.0427 | 0.0621 | 0.0684 | – | 0.0685 | – | – | 0.0503 | – | – | 0.0597 | 0.0683 | 0.0828 | –
G214R | 0.0687 | 0.0751 | 0.102 | 0.0681 | 0.0849 | 0.0716 | 0.078 | 0.0636 | 0.0907 | – | – | 0.0764 | – | – | 0.0755 | 0.0744 | 0.119 | –
